According to the supplement of paper PMC10369915:
This is one part of the list. No stated cut-off is given here; in the data, active = 3.2 or more and inactive = the rest. Only a few entries rise above the background.

B1: PYGM_Y281_I276T (peptide)
chain: TSRVLYPNDNF
B2: QARS1_Y57_Y57H (peptide)
chain: TGILLHGLASR
B3: QDPR_Y16 (peptide)
chain: RRVLVYGGRGA
B4: QDPR_Y16_G17R (peptide)
chain: RRVLVYRGRGA
B5: QDPR_Y16_G17V (peptide)
chain: RRVLVYVGRGA
B6: QPRT_Y162_A158V (peptide)
chain: AVSHRYDLGGL
B7: RAB11B_Y73 (peptide)
chain: AGQERYRAITS
B8: RAB11B_Y73_A68T (peptide)
chain: TGQERYRAITS
B9: RAB14_Y8 (peptide)
chain: TAPYNYSYIFK
B10: RAB18_Y202_A198T (peptide)
chain: GTCGGYCSVLG
B11: RAB3C_Y110_E115K (peptide)
chain: GFILMYDITNK
B12: RAB3C_Y50 (peptide)
chain: SFLFRYADDSF
B13: RAB7A_Y28_K32E (peptide)
chain: SLMNQYVNKEF
B14: RAB7A_Y37 (peptide)
chain: KFSNQYKATIG
B15: RABL3_Y185 (peptide)
chain: CTNPRYLAAGS
B16: RABL3_Y185_R184Q (peptide)
chain: CTNPQYLAAGS
B17: RAC1_Y32 (peptide)
chain: AFPGEYIPTVF
B18: RAC1_Y64_Y64D (peptide)
chain: AGQEDDDRLRP

These binders were tested against SHP2 C-SH2 domain E139D (assay: enrichment score (SH2-bound / input frequency) (ratio); bacterial display of known human phosphotyrosine sites (pTyr-Var adds point mutants) read by sequencing; higher = stronger binding; tyrosines were phosphorylated by kinases first). Details: peptide library: pTyr-Var.
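Further: displayed peptides selected on beads carrying the immobilized SH2 domain, with library peptides lacking any tyrosine serving as negative controls.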

Binder | enrichment score
B1 | inactive: 0.69
B2 | inactive: 1.14
B3 | inactive: 0.166
B4 | inactive: 0.195
B5 | inactive: 0.237
B6 | inactive: 0.694
B7 | inactive: 0.478
B8 | inactive: 0.563
B9 | inactive: 1.77
B10 | inactive: 0.907
B11 | inactive: 1.07
B12 | inactive: 1.39
B13 | inactive: 1.08
B14 | inactive: 0.734
B15 | inactive: 0.657
B16 | inactive: 0.584
B17 | inactive: 1.05
B18 | inactive: 0.389

The binders below were run against SHP2 C-SH2 domain wild-type in the same assay as above. Details: peptide library: pTyr-Var.

Binder | enrichment score
B1 | inactive: 0.832
B2 | inactive: 0.666
B3 | inactive: 0.236
B4 | inactive: 0.274
B5 | inactive: 0.152
B6 | inactive: 0.712
B7 | inactive: 0.373
B8 | inactive: 0.393
B9 | active: 8.72
B10 | inactive: 0.8
B11 | inactive: 0.904
B12 | inactive: 1.16
B13 | inactive: 0.896
B14 | inactive: 0.698
B15 | inactive: 0.952
B16 | inactive: 0.597
B17 | inactive: 0.835
B18 | inactive: 0.532

What follows are binders tested against SHP2 N-SH2 domain L43F in the same assay as above. Details: peptide library: pTyr-Var.

Binder | enrichment score
B1 | inactive: 0.905
B2 | inactive: 1.04
B3 | inactive: 0.211
B4 | inactive: 0.337
B5 | inactive: 0.218
B6 | inactive: 0.825
B7 | inactive: 0.417
B8 | inactive: 0.451
B9 | active: 6.2
B10 | inactive: 0.815
B11 | inactive: 1.32
B12 | inactive: 1.27
B13 | inactive: 1.07
B14 | inactive: 0.709
B15 | inactive: 0.831
B16 | inactive: 0.633
B17 | inactive: 0.883
B18 | inactive: 0.427

What follows are binders tested against SHP2 N-SH2 domain T42A in the same assay as above. Details: peptide library: pTyr-Var.

Binder | enrichment score
B1 | inactive: 0.748
B2 | inactive: 0.822
B3 | inactive: 0.203
B4 | inactive: 0.217
B5 | inactive: 0.158
B6 | inactive: 0.631
B7 | inactive: 0.344
B8 | inactive: 0.483
B9 | active: 20.6
B10 | inactive: 0.825
B11 | inactive: 0.874
B12 | inactive: 1.26
B13 | inactive: 0.877
B14 | inactive: 0.602
B15 | inactive: 0.628
B16 | inactive: 0.659
B17 | inactive: 0.928
B18 | inactive: 0.562

These binders were tested against SHP2 N-SH2 domain T52S in the same assay as above. Details: peptide library: pTyr-Var.

Binder | enrichment score
B1 | inactive: 0.746
B2 | inactive: 0.926
B3 | inactive: 0.255
B4 | inactive: 0.322
B5 | inactive: 0.165
B6 | inactive: 1.02
B7 | inactive: 0.435
B8 | inactive: 0.416
B9 | inactive: 2.49
B10 | inactive: 0.764
B11 | inactive: 1.14
B12 | inactive: 1.38
B13 | inactive: 0.966
B14 | inactive: 0.665
B15 | inactive: 0.814
B16 | inactive: 0.526
B17 | inactive: 1
B18 | inactive: 0.453

Each binder was assayed against SHP2 N-SH2 domain wild-type in the same assay as above. Details: peptide library: pTyr-Var.

Binder | enrichment score
B1 | inactive: 0.982
B2 | inactive: 1.01
B3 | inactive: 0.244
B4 | inactive: 0.269
B5 | inactive: 0.233
B6 | inactive: 0.758
B7 | inactive: 0.511
B8 | inactive: 0.483
B9 | inactive: 1.6
B10 | inactive: 0.85
B11 | inactive: 1.34
B12 | inactive: 1.12
B13 | inactive: 1.12
B14 | inactive: 0.809
B15 | inactive: 1.09
B16 | inactive: 0.772
B17 | inactive: 0.858
B18 | inactive: 0.412
